Experimental data from the RNAGym collection of RNA variant scans (doi:10.7554/elife.90254).
The source gives no read counts; variants with many changes may rest on few reads.

B1: LINE1-full (parent)
chain: UACGUAGGUGGUUUUCCCCUGAUAGUGCUAAGGGGGCCUGGAAGUUUGGACUGGGCAGAGCUCAACACAGCGUGGCAAAGUGGCUGUGGCUAGACUGCCUCUCUGGAUUCCUCGUCACUCAGCAGGGCAUCUCUGAGAGAAAUGCC

Variants of: B1
Test: self-cleavage, relative activity (ratio to wild type); higher = more cleavage; in vitro, sequencing; the parent is a self-cleaving ribozyme

| Variant | self-cleavage |
| --- | --- |
| U5C U85A A94G | 0.37 |
| U5C A59G G72A | 0.2 |
| U5C U14C U23C | 1.21 |
| U5C A31U A77G C116A | 2.02 |
| A6G U9C G33U | 1.21 |
| A6C A67G A140G | 1.38 |
| U5C C71A U87G U96C | 0.1 |
| G7A U14C C90A U96G A138G | 0.1 |
| A6U U23C U112A | 2.3 |
| A6G U14C U96A | 0.07 |
| A6G U14C U96C | 0 |
| U5C U108C C116U | 1.51 |
| U5C U39A U134C | 1.1 |
| A6G A57C A69U | 0.09 |
| U5C U108C U109A | 1.15 |
| A6G A78U U115A | 1.67 |
| A6U U14A U143C | 1.17 |
| A6G U20C A67G A107G A142G | 1.84 |
| A6C G34A G75A U100C | 1.29 |
| A6G A69G U85C U96A | 0.28 |
| U5C G27A A138U | 1.06 |
| A6G C28U U85C U130C | 0.08 |
| A6U U73A A129U | 1.43 |
| G7A C68A U104A | 0.05 |

| Variant | self-cleavage |
| --- | --- |
| G7A G88A U119C | 0.06 |
| A6G A22G U45A U96C U119C G126U A141G | 0.26 |
| G7A A22U U45C U87C | 0.2 |
| U5C U12G U62A A142G | 0.12 |
| A6G A43G U130C A140U | 1.53 |
| A6C G8C A78G | 1.33 |
| A6G U85A U102C A129G | 0.59 |
| A6G U14C U46C U102C U119A U143C | 0.84 |
| A6G U47C G74A | 0.71 |
| U5C U45C A94U | 0.79 |
| A6G A42G U73C | 0.77 |
| A6G A42G U73A | 2.3 |
| A6U U12C U15A A22U A77U | 1.24 |
| U5C U45C U134C | 0.51 |
| A6G C17U A136U | 1.2 |
| U5C U87A U115C | 0.27 |
| A6G U45A A59U | 0.48 |
| A6G U52A A107U G114U A141G | 1.25 |
| U5C U96C U130A | 0.41 |
| A6G A78G G114A | 0.5 |
| A6G A24G A59G A79G U104A | 0 |
| U5C U15C A64G C84A U85C U87C C131A A138G | 0 |
| A6G U39C A69G U109C | 1.31 |
| U5C U47C A138G | 0.51 |

| Variant | self-cleavage |
| --- | --- |
| A6G U9C U15G U85G G93A C110U | 0.44 |
| A6U C111A C113U | 1.04 |
| A6G G54U A129G | 0.73 |
| G7A G44A U130C | 1.13 |
| U5C A43G C101U | 1.4 |
| A6G U112C A124U A136G | 1.84 |
| A6G A42G A67U U73C | 0.54 |
| U5C A30G A57U | 0.37 |
| A6C A67G G72U U73C | 0.46 |
| A6G U73C U119C | 0 |
| A6G U20C U39C | 0 |
| A6G G44A A64U U81C | 0.54 |
| U5C A43G A92G | 0 |
| U5C U112C A136G | 0.77 |
| G7A U12G U26C U87A | 0.1 |
| U5C U46A A117U | 1.01 |
| A6G U39C A121G | 0 |
| U5C U15C U39C | 1.02 |
| U5C U12C U81A U85C U108C | 0.84 |
| A6U U15C U132G | 0.66 |
| A6U A22U C71A | 0.3 |
| A6U A43G U119C A140G | 1.91 |
| A6G A43G U108A C131U | 0.66 |
| G7A G35A A43G A79G U115C | 1.04 |

| Variant | self-cleavage |
| --- | --- |
| A6U U87C A142G | 0 |
| A6G G36C U62C U81A | 0.09 |
| A6G A43G U47C | 2.04 |
| A6G U13C G106A | 0.44 |
| A6G G53A U108C | 1.04 |
| A6G A65G C90U A129U | 0.06 |
| U5C U14C A43G A79G A142G | 0 |
| U5C U13C A43G G54A | 0.97 |
| A6U U20C U81A U112C G122C | 2.54 |
| U5C U73C A78U | 1.51 |
| A6G A79U A140U | 0.89 |
| A6G U47C U104A | 0.32 |
| A6G G75A A94G | 0.69 |
| A6U U13C A69G U130A | 0.42 |
| A6G U23C U96C U134C | 0.71 |
| A6U A50C A59G U87C | 0 |
| A6U U12G U13C A67G U73A | 0 |
| U5C A57U A69G | 0.47 |
| A6G U45A U62A | 0.12 |
| A6U U62C A136G | 0 |
| A6U U12G U115C | 1.02 |
| A6G U15C U85C | 0.5 |
| A6G G25A G83A | 0.41 |
| A6G A22G A107G | 2 |

| Variant | self-cleavage |
| --- | --- |
| A6U A43G G49A C68U A69G A124G | 0.11 |
| A6U U119C U143A | 1.05 |
| U5C A31U A64U A67G A129G U143C | 0.38 |
| A6G A79G A94U A107G | 0.84 |
| A6G U15C U26C G80A U134A | 1.02 |
| A6G A124G G139U | 0.59 |
| U5C U81A U119C | 1.72 |
| U5C U12C U96A | 0.24 |
| U5C U39A A79G | 0.89 |
| G7A A77G U134C | 1.52 |
| U5C A30G G127C | 1.64 |
| U5C A78U G86A U100A U115C | 0 |
| G7A A69G U104C A117G | 0 |
| G7A U20A U134C | 0.8 |
| U5C A67G U96A | 0 |
| A6G A141G U143C | 0.6 |
| A6U U14C G53A U62G A129U | 0.1 |
| A6G A24G A59G A78U U143A | 0.35 |
| U5C U91C A138G | 1.19 |
| U5C U13C U14C C111U U115C C123A A141G | 0.8 |
| U5C U45C A77G U85C | 1.67 |
| A6G A22G U130C | 1.12 |
| G7A A117U C128U U143C | 1.15 |
| U5C U134C A142G | 0.88 |

| Variant | self-cleavage |
| --- | --- |
| U5C U100G C146A | 0.42 |
| A6U U15C G88C U104C | 0.28 |
| U5C G32A A69U U104A U108C A124G | 0.19 |
| A6G U15C A43G G93A | 0.51 |
| A6G U13G C84G U87G C128U | 0.24 |
| U5C U29C U109A | 1.23 |
| U5C U26A U46C C90A | 0.04 |
| U5C U12G U62C U73C | 0 |
| A6U U12C U52A | 1.09 |
| U5C U62C A78G | 0.37 |
| A6G U20G A30U A67C U73C | 0.92 |
| U5C U45C U115C | 1.02 |
| A6G A59G A121U | 0.24 |
| U5C U81A U108C | 2.67 |
| A6G U46C A129G | 1.63 |
| U5C C17A G27A U87A U109C U115C | 0.11 |
| U5C A57G G74C C120U A140U | 0.81 |
| U5C A43G G127A | 0.81 |
| U5C U20C A22U A129G | 0 |
| U5C G10A U12G A57G A67G A142G | 0.84 |
| U5C U26A U47A U62A | 0.23 |
| U5G A43U U52C A78G | 1.38 |
| U5C U52C G82A | 1.21 |
| A6G U20C A42G U102A A124U A138G | 1.38 |

| Variant | self-cleavage |
| --- | --- |
| U5C C98U A140U | 1.13 |
| U5C U52G U100C U102C | 2.04 |
| U5C U20C U104C U143C | 0.48 |
| U5C U45C U81C | 1.15 |
| A6G U26A U73G A129G | 0.2 |
| U5C G35A U96C | 0.28 |
| A6U U87C A129G | 0.45 |
| U5C U115A A138U | 0.93 |
| U5C U14C A78G G86A U91A | 0.26 |
| U5C A94U A117U | 0.14 |
| U5C A50U U73A U85C A140U | 0 |
| U5C U13C A79G | 0.51 |
| A6U C19U A78G | 1.55 |
| A6G U14C A64G | 0.96 |
| A6U G25C U26A C37G U46G U109C | 0.99 |
| A6U A77G G88A A124G A140G A141G | 0.1 |
| U5C A121G A142G | 1.23 |
| U5C A78U U87A U108C A138U | 0.48 |
| U5C U23C G41A | 1.02 |
| U5C A136G G139A | 1.35 |
| A6G G34U U73A | 0.94 |
| A6U U14A U109C | 0.76 |
| A6U G32A U39C | 1.06 |
